Results reported in PubChem BioAssay AID485297 (National Center for Advancing Translational Sciences (NCATS), 2010).
Out of some 320,000 compounds screened, about 9,100 (2.8%) were called active. The shares of active, inactive and inconclusive entries below differ from those in the screen. Calls follow the shape of the dose curve; as a rule, active = well fitted activation curve with a large enough effect; inconclusive = small, poorly fitted or top-dose-only effect; inactive = no such curve, though single readings can be large or run the other way. No potency is given beside an inconclusive call; the fits are too rough.

Assay: qHTS Assay for Rab9 Promoter Activators; also: nearly all actives have a fitted effect of over 60% in size
Details: Huh7 Rab9 promoter-luciferase reporter, luminescence, 24 h; series mostly up to 9.22 µM
Outline: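 Quantitative HTS format; Huh7 Rab9-luciferase reporter cells (1500/well) receive compound 2 h post-plating, incubate 24 h at 37 °C, then get luciferase reagent for 10 min before luminescence reading.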
Potency is read from the fitted curve at half-maximal effect; tags tell the direction and shape of the fitted curve.

SMILES	Potency
COc1ccc(-c2cn3cccnc3n2)cc1F	inconclusive [activator, single point]
Cc1ccc(C(=O)NCCCc2ccccc2)s1	inconclusive [activator, partial curve]
COc1ccccc1-c1cc(C(=O)Nc2ccc(F)cc2F)no1	inconclusive [activator, partial curve]
Nc1c(-c2cccc(Cl)c2)cnn1-c1ccccc1	inconclusive [activator, partial curve]
O=C(NCCOc1ccccc1F)Nc1ccc(Br)cc1	inconclusive [activator, single point]
CC(C)=C(NC(=O)c1ccccc1Br)C(=O)NCCc1nc2ccccc2[nH]1	inactive
O=C(CSc1n[nH]c(-c2ccccc2O)n1)N1CCOCC1	inactive
Cc1nc(NC(=O)c2ccc([N+](=O)[O-])cc2Cl)sc1C(=O)N(C)C	inactive
CSc1ccccc1OCc1cc(C(=O)N2CCN(C3CCCC3)C(=O)C2)no1	inconclusive [activator, single point]
COc1ccc2nc(NCCO)[nH]c2c1	inactive
O=C(/C=C/c1ccccc1F)c1cccc([N+](=O)[O-])c1	inactive
O=C(CSc1ccccn1)Nc1nc2ccccc2s1	inactive
CS(=O)(=O)Nc1ccc(OCc2ccccc2)cc1	inconclusive [activator, partial curve]
c1ccc(-c2csc(N3CCc4ccccc4C3)n2)cc1	inconclusive [activator, single point]
C#CCSc1nnc(-c2ccc(O)cc2)o1	inconclusive [activator, single point]
O=[N+]([O-])c1ccc(-c2ccc(/C=N/c3c(-c4ccco4)nc4ccccn34)o2)cc1	inconclusive [activator, single point]
O=c1cnnc(SCc2ccc([N+](=O)[O-])cc2)[nH]1	inactive
Cc1nc2ccc(NC(=O)c3ccco3)cc2nc1C	inconclusive [activator, single point]
Cc1ccc(C)c(COc2coc(CN3CCN(C(=O)c4ccco4)CC3)cc2=O)c1	inactive
O=c1[nH]c(-c2ccco2)nc2sc3c(c12)CCCC3	active: 1.58 µM
CCCc1ccc2oc(C(=O)N3CCC[C@H]3CO)c(C)c2c1	active: 3.16 µM
CCCc1cc(=O)n2c(nc3ccccc32)[nH]1	inconclusive [activator, single point]
O=C(NCC(=O)N1CCCCCCC1)c1ccco1	inconclusive [activator, single point]
Cc1cc(O)c(C(=O)/C=C/c2ccc(C(C)C)cc2)c(=O)o1	active: 2.82 µM
CC1CN(Cc2csc(-c3ccc(Cl)cc3)n2)CC(C)O1 (configuration not stated)	inconclusive [activator, partial curve]
Cc1c(C(=O)O)cnc2c([N+](=O)[O-])cnn12	inactive

SMILES	Potency
Cc1ccc(NC2=C/C(=N/S(=O)(=O)c3cccs3)c3ccccc3C2=O)cc1C	inconclusive [activator, partial curve]
CC(=O)OCC(=O)Nc1ccc(N=Nc2ccccc2)cc1	active: 2.82 µM
COc1ccc2cc3cc(C(=O)NCCCN4CCc5ccccc5C4)sc3nc2c1	active: 4.47 µM
CC(=O)Nc1ccc(N2CCCCC2)cc1	inactive
CCOC(=O)c1cnn(-c2ccccc2)c1NC(=O)c1cccs1	inactive
Cc1ccc2nc(NC(=O)CSCC(=O)Nc3cc(C)on3)sc2c1	active: 2.51 µM
O=C(Nc1nccs1)c1cccnc1	inactive
O=[N+]([O-])c1ccc(/C=N/NC(=S)Nc2ccc(Cl)cc2Cl)s1	inactive
CCC(=O)NCCc1nc2cc(NC(=O)c3ccco3)ccc2n1C	inconclusive [activator, partial curve]
Cn1c(=O)c2c(nc(CN3CCN(Cc4ccccc4)CC3)n2Cc2ccc(Cl)cc2)n(C)c1=O	inactive
CC(=O)NCCc1nc2cc(NC(=O)Nc3ccccc3)ccc2n1C	active: 3.98 µM
Nc1ccccc1NC1=CC(=O)CC(c2ccco2)C1 (configuration not stated)	inconclusive [activator, single point]
O=C(NC1CC1)c1ccc(-n2cccc2)cc1	inconclusive [activator, single point]
c1ccc(-c2cncn2-c2ccccc2)cc1	inactive
CN1CCc2c(sc(NC(=O)C3COc4ccccc4O3)c2C(N)=O)C1 (configuration not stated)	inconclusive [activator, partial curve]
COc1ccc(C(=O)Nc2cccc(C(=O)O)c2)cc1S(=O)(=O)N1CCCC1	inconclusive [activator, partial curve]
CCCC1C2C(=O)N(c3ccccc3OC)C(=O)C2ON1c1ccccc1 (configuration not stated)	inconclusive [activator, single point]
O=[N+]([O-])c1ccc(Oc2cnc3ccccc3n2)cc1	inconclusive [activator, single point]
O=[N+]([O-])c1cc(C(F)(F)F)ccc1NCCOc1ccccc1	inconclusive [activator, single point]
CCc1ccccc1NC(=O)CNC(=O)c1cccc(S(=O)(=O)N2CCN(Cc3ccccc3)CC2)c1	inactive
Cc1cc(C(=O)OCC(=O)N2CCc3ccccc32)c(C)o1	inconclusive [activator, partial curve]
CCC(C)NC(=S)N(Cc1cc2cc(C)ccc2n2nnnc12)CC(C)(C)NC(C)C (configuration not stated)	inactive
CCC1=[N+](CC(=O)c2ccc(Br)cc2)CCn2c(C)ccc21	inconclusive [activator, partial curve]
COc1cnn(-c2ccc(Br)cc2)c(=O)c1SCc1ccccc1	inconclusive [activator, single point]
Cc1ccsc1/C=N\NC(=O)c1cc(C(C)(C)C)[nH]n1	active: 2.82 µM
OCC1CCCN(C(=S)NCCc2ccccc2)C1 (configuration not stated)	inconclusive [activator, partial curve]
